Where “and” joins values, the source holds several entries; their conditions need not be identical. Identical values can stand only once. The campaign covered roughly 150,000 compounds. About 6,500 (4.3%) were called active. Inconclusive means that the source gave no clear call. Such entries were picked first, then a sample of the others. Calls come from the whole dose curve; as a rule, active = well fitted inhibition curve with a large enough effect (not every such curve was filed as active); inconclusive = small, poorly fitted or top-dose-only effect, or another doubt; inactive = no such curve, though single readings can be large or run the other way. Potencies of inconclusive entries are left out as doubtful fits.
The compounds below were run against 15-hydroxyprostaglandin dehydrogenase [NAD(+)] (Homo sapiens) (UniProt P15428) (assay: qHTS Assay for Inhibitors of HPGD (15-Hydroxyprostaglandin Dehydrogenase)). Settings: purified HPGD, NADH fluorescence kinetic, PGE2 substrate; activity change, negative = inhibition: stronger effect = lower value.
Chain of UniProt P15428 (P15428 whole entry, looked up): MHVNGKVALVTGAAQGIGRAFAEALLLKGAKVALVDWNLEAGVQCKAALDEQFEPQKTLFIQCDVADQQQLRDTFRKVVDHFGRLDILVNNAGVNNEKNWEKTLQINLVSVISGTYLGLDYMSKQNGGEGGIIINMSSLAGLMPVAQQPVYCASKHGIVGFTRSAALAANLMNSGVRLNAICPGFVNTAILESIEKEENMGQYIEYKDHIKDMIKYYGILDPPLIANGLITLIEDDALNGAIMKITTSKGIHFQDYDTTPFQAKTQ
Procedure, shortened: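 NADH formation kinetics: reaction with 30 uM PGE2 and 1 mM NAD+ (final), 20 nM enzyme, Tris-HCl pH 8 with Tween 20, after 15 min compound preincubation at room temperature. Fluorescence change, last versus first of five reads.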
% is set by controls: 0 for no effect and ±100 for the full control effect; potency is the fitted concentration of half-maximal effect; tags give direction and shape of the fitted curve.

Row | Structure (SMILES) | activity change, negative = inhibition | Potency
1 | O=C(Nc1ccc2oc(-c3ccccc3)nc2c1)c1ccncc1 | inactive: -8.09% | 
2 | CCCn1nc2cc(C(=O)NC3CCCc4ccccc43)ccc2c1OCC (stereo not drawn) |  | inconclusive [inhibitor, partial curve]
3 | COC(=O)N1C(C2CC2)=Cc2ccccc2C1CC(C)=O (stereo not drawn) | inactive: -6.37% and inactive: -3.82% | 
4 | COc1ccc(CSc2nc(C)cc(=O)[nH]2)cc1Br |  | active: 15.8 µM
5 | CCCOc1ccc(C(=O)NC(C)C(=O)O)cc1 (stereo not drawn) | inactive: -8.52% | 
6 | COc1ccccc1-c1nnc2sc(COc3ccc(Cl)cc3Cl)nn12 |  | active: 1.26 µM
7 | CC1=C(C(=O)Nc2ccccc2)C(c2ccncc2)C(C#N)=C(SCC(=O)Nc2ccccc2)N1 (stereo not drawn) | inactive: -8.16% | 
8 | O=C(CSc1nc2cccnc2n1Cc1ccccc1)N1CCCC1 |  | inconclusive [inhibitor, single point]
9 | COc1cc(OC)c2cc(-c3ccncc3)cnc2c1 |  | inconclusive [inhibitor, partial curve]
10 | CCCC1=C(C(=O)OCC)C(c2cccs2)C(C#N)=C(N)O1 (stereo not drawn) | inactive: -19% | 
11 | CCOC(=O)OC(C)OC(=O)C1N2C(=O)C(NC(=O)C(N)c3ccccc3)C2SC1(C)C (stereo not drawn) |  | inconclusive [inhibitor, partial curve]
12 | C[N+](C)(C)c1cc2c(nn1)Nc1ccccc1S2 |  | inconclusive [inhibitor, single point]
13 | COCCNC(=O)c1ccc2ccccc2n1 |  | active: 22.4 µM
14 | O=C(O)CCSc1nc2ccccc2s1 |  | inconclusive [inhibitor, single point]
15 | Cc1cc(NC(=O)CSc2ccc3nnc(-c4cccc(F)c4)n3n2)no1 |  | inconclusive [inhibitor, partial curve]
16 | CCc1ccc(NC(=S)NC(=O)CC(C)C)cc1 |  | inconclusive [inhibitor, full curve, poor fit]
17 | CC(=O)c1cccc(NC(=O)CCS(=O)(=O)c2cccc3nsnc23)c1 |  | active: 28.2 µM
18 | O=C(NC1CCCCCCC1)c1ccco1 |  | inconclusive [inhibitor, single point]
19 | Cc1c(NC(=O)c2cc3c(s2)-c2ccccc2OC3)cccc1[N+](=O)[O-] |  | inconclusive [inhibitor, partial curve]
20 | N#Cc1nc(-c2ccc(F)cc2)oc1N1CCCC1 |  | inconclusive [inhibitor, full curve]
21 | O=C(c1ccc(Cl)cc1)N1CCCOC1 |  | active: 8.91 µM
22 | COc1ccc(N2Nc3n[nH]c(N)c3N2)cc1 | inactive: -11.3% | 
23 | O=C(CSc1nc2c([nH]c3ccccc32)c(=O)n1-c1ccc(F)cc1)NCc1ccco1 |  | inconclusive [inhibitor, partial curve]
24 | CC(CC(=O)NC1CCCC1)c1ccccc1 (stereo not drawn) |  | active: 2.51 µM
25 | Cc1c(C(=O)O)cccc1-n1c(C)cc(/C=N/NC(=O)c2cc3ccccc3o2)c1C |  | inconclusive [inhibitor, single point]

Row | Structure (SMILES) | activity change, negative = inhibition | Potency
26 | COC(=O)CSc1nc(C)c2ccc(OC)cc2n1 |  | inconclusive [inhibitor, partial curve]
27 | O=C(c1ccncc1)N1CCC[C@@]2(CCN(Cc3ccncc3)C2)C1 | inactive: -12.5% | 
28 | COc1ccc(N(CC(=O)NCc2ccco2)S(C)(=O)=O)cc1 | inactive: -6.69% | 
29 | CCOC(=O)C(C)Sc1ncnc2nc[nH]c12 (stereo not drawn) | inactive: -0.233% | 
30 | CCOC(=O)C1CCN(c2c(NCc3ccc(C(=O)NCCOC)cc3)c(=O)c2=O)CC1 |  | active: 3.55 µM
31 | CNc1c(N)n(Cc2ccccc2)c(=O)[nH]c1=O |  | inconclusive [inhibitor, partial curve]
32 | CCCn1nc(NC(=O)c2cccs2)c2cc3ccccc3nc21 |  | inconclusive [inhibitor, partial curve]
33 | COc1ccccc1N1C(=O)CC(Sc2n[nH]c(-c3cccc(C)c3)n2)C1=O (stereo not drawn) |  | inconclusive [inhibitor, partial curve]
34 | COc1cccc(/C=N/NC(=O)CNC(=O)c2ccc(S(=O)(=O)N3CCOCC3)cc2)c1OC |  | inconclusive [inhibitor, partial curve]
35 | COc1cc(OC)cc(-c2nc3ccccc3c(=O)n2NC(=O)c2cccnc2Cl)c1 | inactive: -8.81% | 
36 | O=c1oc(-c2cccs2)nc2sc3c(c12)CCCCC3 |  | inconclusive [inhibitor, partial curve]
37 | CCOC(=O)CSc1nc2ccc(N3CCOCC3)cc2c(=O)n1Cc1ccccc1 |  | inconclusive [inhibitor, partial curve]
38 | O=C(c1ccco1)N1CCC[C@@]2(CCN(c3ccncc3)C2)C1 | inactive: -12.5% | 
39 | CCOC(=O)c1c(C)[nH]c(C(=O)CSc2nnc(Nc3ccccc3F)s2)c1C |  | inconclusive [inhibitor, single point]
40 | Cc1ccc2oc(-c3cccc(NC(=O)C4CCCO4)c3)nc2c1 (stereo not drawn) |  | inconclusive [inhibitor, partial curve]
41 | CS(=O)(=O)N1CCC2(CC1)CN(c1cccc(-c3ccccc3)c1)C2 |  | inconclusive [inhibitor, partial curve]
42 | CSc1nc(C2CC2)cc(-c2cccs2)c1C#N |  | inconclusive [inhibitor, single point]
43 | N#C/C(=C\c1ccc(OC(=O)c2cccs2)cc1)c1nc2ccccc2[nH]1 |  | inconclusive [inhibitor, partial curve]
44 | Cc1nn(C)cc1C1C2=C(CC(C)(C)CC2=O)N(c2ccccc2)C2=C1C(=O)CC(C)(C)C2 |  | inconclusive [inhibitor, partial curve]
45 | CC(C)(C)c1[nH]c2ccccc2c1/C=N/O |  | active: 2 µM
46 | Cc1cc(C)n(S(=O)(=O)c2ccc(C)c(C)c2C)n1 | inactive: -10.2% | 
47 | Cc1cccc(S(=O)(=O)c2c(N)n(/N=C/c3ccco3)c3nc4ccccc4nc23)c1 |  | inconclusive [inhibitor, partial curve]
48 | COc1ccc(-c2nnc(SCC(=O)c3ccc[nH]3)n2-c2ccccc2)cc1 |  | inconclusive [inhibitor, partial curve, poor fit]
49 | CCCCCCc1cc2cc(S(=O)(=O)c3ccc(F)c(Cl)c3)c(=O)oc2cc1O |  | inconclusive [inhibitor, partial curve]
50 | Fc1ccc(-c2ccnc(=S)[nH]2)cc1 |  | active: 17.8 µM

Row | Structure (SMILES) | activity change, negative = inhibition | Potency
51 | O=C(Cn1nnc(-c2ccc(Cl)cc2)n1)NCCC1=CCCCC1 | inactive: -0.803% | 
52 | COc1ccc(Cl)cc1-c1nc(-c2ccc(NC(=O)c3cccs3)cc2)no1 |  | inconclusive [inhibitor, partial curve]
53 | Cc1cccc(/C=N/NC(=O)C2CCCNC2=O)c1 (stereo not drawn) | inactive: 1.91% | 
54 | O=C(Nc1ccccc1-c1nc2ccccc2[nH]1)c1ccc(S(=O)(=O)N2CCCCC2)cc1 |  | inconclusive [inhibitor, partial curve]
55 | CCC(=O)c1cc2c(cc1NC(=O)c1ccc(C)cc1)OCCO2 |  | inconclusive [inhibitor, partial curve]
56 | CCN(CC)c1ccc(C(=O)OCc2cc(=O)oc3cc(O)ccc23)cc1 |  | inconclusive [inhibitor, full curve]
57 | S=c1[nH]nc(CSc2nc3ccccc3s2)n1C1CCCCC1 |  | active: 7.08 µM
58 | O=c1c(-c2cccs2)nc2cnc(Oc3cccc(Cl)c3)nc2n1C1CC1 |  | inconclusive [inhibitor, partial curve]
59 | CCN1CCN(C(=O)c2ccc(CSc3ccc(C)cc3)cc2)CC1 |  | active: 14.1 µM
60 | COc1ccc(OCC(=O)N/N=C(\C)c2cc3ccccc3o2)cc1 |  | inconclusive [inhibitor, single point]
61 | CC(=O)OCCNc1cc(SCc2ccco2)c2nonc2c1[N+](=O)[O-] |  | inconclusive [inhibitor, partial curve]
62 | COc1cc(OC)cc(-c2nnc(SCC(=O)N3CCCc4ccccc43)o2)c1 |  | inconclusive [inhibitor, partial curve]
63 | COc1ccc2c(c1)C(SCC(=O)NCCc1ccc(Cl)cc1)CC(C)(C)O2 (stereo not drawn) | inactive: -8.09% | 
64 | C=CCn1c(SCC(=O)NC23CC4CC(CC(C4)C2)C3)nc(O)cc1=O |  | inconclusive [inhibitor, partial curve]
65 | Cc1ccc(CNC(=O)C(OC(=O)c2ccco2)C(C)C)cc1 (stereo not drawn) |  | active: 4.47 µM
66 | CCc1ccc2oc(-c3ccc(N)cc3)nc2c1 |  | inconclusive [inhibitor, partial curve]
67 | NC(=O)c1ccccc1N/C=C/C(=O)c1cccs1 | inactive: -4.54% | 
68 | CCN(CCNC(=O)c1ccc(CSc2nc3ccncc3[nH]2)cc1)c1ccccc1 | inactive: -13.5% | 
69 | CCOc1nc(N2CCOCC2)nc(C)c1[N+](=O)[O-] | inactive: -9.03% | 
70 | COC(=O)c1ccc(C)c(NS(=O)(=O)c2ccc3c(c2)OCCO3)c1 | inactive: -0.534% | 
71 | COc1ccc(-c2ccc(C#N)c(SCC(=O)NCCc3ccccc3)n2)cc1OC |  | inconclusive [inhibitor, partial curve]
72 | Brc1ccccc1-c1nnc2sc(-c3ccc4c(c3)OCCO4)nn12 |  | inconclusive [inhibitor, partial curve]
73 | CS(=O)(=O)Nc1cccc(-c2nc(Nc3ccc(F)cc3)c3ccccc3n2)c1 |  | inconclusive [inhibitor, single point]
